The data set deals with the molecule itself. Briefly: native MS; non-activating native electrospray on a Q Exactive UHMR; 200 mM ammonium acetate pH 6.9; 5 μM ADH, 10 μM β-gal, 8 μM ferritin, 5 μM GroEL (concentrations of the most abundant oligomers).

B1: β-galactosidase (enzyme)
chain: not shown
notes: β-galactosidase (β-gal), Sigma Aldrich G3153-5MG; tetramer with a mass of 466 kDa; source: bought: Sigma Aldrich (G3153-5MG), used without further purification; desalted into 200 mM ammonium acetate
In general, stoichiometry N refers to the number of molecules, sites or subunits per partner or assembly. With B1, the “stoichiometry N” value is 4.

For the origin of these results see paper PMC9641999, “Cryo-EM samples of gas-phase purified protein assemblies using native electrospray ion-beam deposition” (Faraday discussions, 2022).
